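48-hour exposure; five concentrations; linearly interpolated endpoints. Here, GI50 denotes the concentration required for 50% inhibition of growth. At the TGI there is no net growth.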
Test system: NCI-H322M lung
Test: NCI tumour cell line growth inhibition, 48 h

Compound	GI50 [µM]	TGI [µM]
Cc1cc2nc3c4cc(Cl)ccc4n(CC(=O)NCCN(C)C)c3nc2cc1C	13.1	26
Cn1cc(-c2nnc(N)nc2-c2c[nH]c3ccc(F)cc23)c2cc(Br)ccc21	3.72	15.2

Reference: PubChem BioAssay (NCI)
